{"source": "PubChem BioAssay AID624417", "about": "(National Center for Advancing Translational Sciences (NCATS), 2012)", "note": "Screen size: about 410,000 compounds; about 6,400 (1.6%) were called active. The inconclusive results got no clear call from the source; some entries with a clear call stand among them for comparison. Calls come from the whole dose curve; as a rule, active = well fitted inhibition curve with a large enough effect; inconclusive = small, poorly fitted or top-dose-only effect; inactive = no such curve, though single readings can be large or run the other way. No potency is given beside an inconclusive call; the fits are too rough. Potency is the fitted concentration of half-maximal effect; tags give direction and shape of the fitted curve."}
{"target": "Glucagon-like peptide 1 receptor (Homo sapiens) (UniProt P43220)", "sequence (P43220 whole entry, looked up)": "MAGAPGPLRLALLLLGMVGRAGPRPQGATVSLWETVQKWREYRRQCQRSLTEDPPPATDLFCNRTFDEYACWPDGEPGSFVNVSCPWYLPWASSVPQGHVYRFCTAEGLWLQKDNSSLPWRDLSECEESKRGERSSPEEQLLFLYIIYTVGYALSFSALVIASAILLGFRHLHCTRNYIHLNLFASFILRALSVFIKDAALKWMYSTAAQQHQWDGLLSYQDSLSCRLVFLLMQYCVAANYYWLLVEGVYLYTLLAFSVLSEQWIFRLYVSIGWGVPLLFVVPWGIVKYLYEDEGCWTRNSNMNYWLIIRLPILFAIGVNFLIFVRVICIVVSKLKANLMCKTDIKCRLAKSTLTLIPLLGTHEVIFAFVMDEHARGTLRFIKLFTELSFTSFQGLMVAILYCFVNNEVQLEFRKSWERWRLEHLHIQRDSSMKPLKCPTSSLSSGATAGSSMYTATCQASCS", "experiment": "qHTS of GLP-1 Receptor Inverse Agonists (Inhibition Mode); note: nearly all actives have a fitted effect of over 55% in size", "conditions": "HEK293 GLP-1R CRE-luciferase, luminescence, 24 h, GLP-1R form is constitutively active; series mostly up to 38.3 µM", "procedure,_shortened": "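Stable HEK293 clone (constitutively active GLP-1R + cAMP-response luciferase); 200 cells/uL plated, 12 h pre-culture, compound 24 hr, 37 deg C/5% CO2; detection reagent 12 min RT; luminescence.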"}
{"smiles": "COc1ccc(Br)cc1CNC(=O)CCSCc1ccc(C)cc1", "Potency": "inconclusive [inhibitor, partial curve, poor fit]"}
{"smiles": "CC(C)(C)NC(=O)C(c1ccc(F)cc1)N(Cc1ccco1)C(=O)CCC(=O)Nc1nccs1", "note": "(stereo unspecified)", "Potency": "inactive"}
{"smiles": "Cc1noc(C)c1S(=O)(=O)N(CCc1ccccc1)Cc1ccccc1", "Potency": "inconclusive [inhibitor, partial curve, poor fit]"}
{"smiles": "COc1cccc(N2CCN(C(=O)c3cn(Cc4ccccc4)nc3-c3cccnc3)CC2)c1", "Potency": "inconclusive [inhibitor, full curve, poor fit]"}
{"smiles": "CCC(C)c1ccc(NC(=S)NCc2ccccc2OC)cc1", "note": "(stereo unspecified)", "Potency": "inconclusive [inhibitor, single point]"}
{"smiles": "O=C(CSc1c2c(nc3cc(Cl)ccc13)CCCC2)NCCN1CCOCC1", "Potency": "inactive"}
{"smiles": "Cc1cc(NC(=S)Nc2ccc(C)c(Cl)c2)n[nH]1", "Potency": "inconclusive [inhibitor, single point]"}
{"smiles": "Cc1cccnc1NC(=O)NC(=O)c1ccc(C(C)(C)C)s1", "Potency": "inactive"}
{"smiles": "c1ccc(C[C@H]2CN=C(Nc3ccccc3)N2CCC2CCCC2)cc1", "Potency": "inconclusive [inhibitor, partial curve, poor fit]"}
{"smiles": "CCOc1ccccc1CNC(=O)Cn1cc2c(n1)-c1c(oc(C(=O)N3CCCC3)c1C)CC2", "Potency": "inactive"}
{"smiles": "Cc1ccc(N2C(=O)N(Cc3cc(=O)n4ccccc4n3)c3ccccc3S2(=O)=O)cc1Cl", "Potency": "inconclusive [inhibitor, single point]"}
{"smiles": "COc1ccc(C(CNC(=O)COc2ccc(-c3ccccc3)cc2)N2CCOCC2)cc1", "note": "(stereo unspecified)", "Potency": "inconclusive [inhibitor, single point]"}
{"smiles": "Cc1ccc(S(=O)(=O)CCSC(=N)N)cc1", "Potency": "inconclusive [inhibitor, single point]"}
{"smiles": "COc1ccc(Cl)cc1/C=C/c1ccc2cccc(O)c2n1", "Potency": "inactive"}
{"smiles": "O=C1[C@H]2[C@@H](c3ccc(F)cc3)N3C(=O)N(c4ccc(Br)cc4)C(=O)[C@@]3(Cc3ccc(Cl)cc3)[C@H]2C(=O)N1C1CCCCC1", "Potency": "inconclusive [inhibitor, partial curve, poor fit]"}
{"smiles": "CC1CCCN(C(=O)CSc2nnc(-c3cccs3)o2)C1", "note": "(stereo unspecified)", "Potency": "inactive"}
{"smiles": "COc1ccc(O)c(C(=O)CC(=O)c2ccncc2)c1", "Potency": "inactive"}
{"smiles": "COc1cccc(-c2nc(N3CCCCC3C)c3ccccc3n2)c1O", "note": "(stereo unspecified)", "Potency": "inconclusive [inhibitor, partial curve, poor fit]"}
{"smiles": "O=C(CCn1c2c(c3ccccc31)CCCC2)NNC(=O)c1cccc([N+](=O)[O-])c1", "Potency": "inconclusive [inhibitor, partial curve]"}
{"smiles": "CC(Oc1ccc(Br)cc1)C(=O)Nc1ncn[nH]1", "note": "(stereo unspecified)", "Potency": "inactive"}
{"smiles": "O=C(Nc1ccccc1)c1nccn1Cc1ccc(F)cc1", "Potency": "inconclusive [inhibitor, single point]"}
{"smiles": "CCn1cc(C(=O)N2CCN(c3cc(C)ccc3C)CC2)c(=O)c2cc(S(=O)(=O)N3CCCCC3)ccc21", "Potency": "inactive"}
{"smiles": "CC1Cc2cc(/C=C3/SC(=S)NC3=O)ccc2O1", "note": "(stereo unspecified)", "Potency": "inconclusive [inhibitor, single point]"}
{"smiles": "COc1ccc(Br)cc1/C=N/NS(=O)(=O)c1ccccc1", "Potency": "inconclusive [inhibitor, partial curve, poor fit]"}
{"smiles": "CCCc1c(-c2ccc(Cl)cc2)ncn1Cc1cccc(-c2ccccc2)c1", "Potency": "inconclusive [inhibitor, single point]"}
{"smiles": "CC(C)(C)NS(=O)(=O)c1ccc(NC(=O)CS(=O)(=O)Cc2ccccc2)cc1", "Potency": "inconclusive [inhibitor, single point]"}
{"smiles": "Cc1cccc(N(Cc2ccccc2)C(=O)CCl)c1", "Potency": "active: 10 µM"}
{"smiles": "CC(C)C[C@@H](CN(C)N=O)N(C[C@H](Cc1ccccc1)N(CCc1ccccc1)N=O)N=O", "Potency": "inconclusive [inhibitor, partial curve, poor fit]"}
{"smiles": "CCOc1ccc(-n2nc(CO)c(C(=O)NCc3cccs3)n2)cc1", "Potency": "inconclusive [inhibitor, partial curve]"}
{"smiles": "CC(C#Cc1c([C@@H](C)Oc2ccccc2)nnn1Cc1ccccc1)Oc1ccccc1", "note": "(stereo partly specified)", "Potency": "inconclusive [inhibitor, single point]"}
{"smiles": "CCCCOc1ccc(/C=C/C(=O)N(CC)CC(=O)Nc2ccc3c(c2)OCCO3)cc1OC", "Potency": "inconclusive [inhibitor, partial curve, poor fit]"}
{"smiles": "O=C(CSc1nnc(Cc2cccs2)n1-c1ccccc1)Nc1ccc2c(c1)OCCO2", "Potency": "inconclusive [inhibitor, partial curve]"}
{"smiles": "Cc1cc(C)n(-c2ccc(C(=O)N3CCN(S(=O)(=O)c4ccc(OC(F)(F)F)cc4)CC3)cc2)n1", "Potency": "inconclusive [inhibitor, single point]"}
{"smiles": "CCc1cccc(C)c1NC(=O)CCn1c(=O)c2cccn2c2ccccc21", "Potency": "inactive"}
{"smiles": "CCOC(=O)C1CCCN(c2nc3ccccc3nc2C(C#N)C(=O)OCCOC)C1", "note": "(stereo unspecified)", "Potency": "inconclusive [inhibitor, partial curve, poor fit]"}
{"smiles": "O=C(CSc1nnc(-c2ccc(Br)cc2)n1C1CCCCC1)N1CCCC1", "Potency": "inactive"}
{"smiles": "Cn1cccc1Cc1nnc(SCC(=O)Nc2cccc(F)c2)n1-c1ccc(F)cc1", "Potency": "inconclusive [inhibitor, partial curve, poor fit]"}
{"smiles": "O=C(OCc1ccccc1)c1cccc(-c2nnn(Cc3ccccc3)n2)c1", "Potency": "inconclusive [inhibitor, single point]"}
{"smiles": "COc1ccc2[nH]c3c(c2c1)CCN1C(=O)C(CC(=O)NCCN2CCOCC2)C[C@H](C(=O)N2CCCCC2)[C@@]31CCc1ccccc1", "note": "(stereo partly specified)", "Potency": "inactive"}
{"smiles": "CCOC(=O)C1=CCN(S(=O)(=O)c2ccc(Cl)cc2)C1c1cccc(C)c1", "note": "(stereo unspecified)", "Potency": "inconclusive [inhibitor, single point]"}
{"smiles": "COc1ccc(C(=S)NCS(=O)(=O)c2ccc(C)cc2)cc1", "Potency": "inconclusive [inhibitor, single point]"}
{"smiles": "CCC(=O)Nc1ccc2oc(-c3cccnc3)nc2c1", "Potency": "inactive"}
{"smiles": "O=C(NCc1ccc(F)cc1)C1C2C=CC3(CN(Cc4cccnc4)C(=O)C13)O2", "note": "(stereo unspecified)", "Potency": "inactive"}
{"smiles": "Cc1ccc(-c2cc(C(=O)N(Cc3ccc(C(C)(C)C)cc3)Cc3ccco3)no2)cc1", "Potency": "inconclusive [inhibitor, single point]"}
{"smiles": "Cc1ccc(NC(=O)N2CC3CCCN3c3ccccc32)c(C)c1", "note": "(stereo unspecified)", "Potency": "inconclusive [inhibitor, partial curve, poor fit]"}
{"smiles": "COc1ccc(CCNC(=O)c2ccc(F)c(S(=O)(=O)N3CCCCC3)c2)cc1", "Potency": "inconclusive [inhibitor, single point]"}
{"smiles": "N#CC1=C2N=C(N)c3ccccc3N2C2=C(C(=O)CCC2)C1c1cccc(Cl)c1", "note": "(stereo unspecified)", "Potency": "inconclusive [inhibitor, partial curve, poor fit]"}
{"smiles": "CCc1ccc(N2CC(O)(c3cccs3)[N+]3=C2SCCC3)cc1", "note": "(stereo unspecified)", "Potency": "inconclusive [inhibitor, partial curve, poor fit]"}
{"smiles": "CCCCNc1nc(=S)n(-c2ccccc2)c(C)c1C(C)=O", "Potency": "inconclusive [inhibitor, single point]"}
{"smiles": "O=C(CSc1ccccc1F)NNC(=O)c1ccncc1", "Potency": "inactive"}
{"smiles": "Fc1ccc(-n2ncc3c(N4CCCCCC4)ncnc32)cc1", "Potency": "inconclusive [inhibitor, full curve, poor fit]"}
{"smiles": "Cc1c(Nc2nc3ccccc3n3c(C)nnc23)cccc1C(=O)O", "Potency": "inactive"}
{"smiles": "CCOc1ccccc1CNC(=O)c1ccc2c(c1)nc1n2CCCCC1", "Potency": "inconclusive [inhibitor, full curve, poor fit]"}
{"smiles": "Cc1ccc(Cl)cc1-n1ncc2c(NCCCc3ccccc3)ncnc21", "Potency": "active: 11.2 µM"}
{"smiles": "CC(C)Cc1ccc(-c2cc3nc(NCC4CC4)ccn3n2)cc1", "Potency": "inconclusive [inhibitor, single point]"}
{"smiles": "CCN(CC)S(=O)(=O)c1ccc2c(c1)N(CC(=O)N1CCN(c3cccc(OC)c3)CC1)C(=O)CO2", "Potency": "inactive"}
{"smiles": "Cc1ccc(/C(=N/Nc2ncnc3ccccc23)C(=O)O)cc1", "Potency": "inconclusive [inhibitor, partial curve, poor fit]"}
{"smiles": "CCOc1ccc(NC(=O)CCC(=O)O)cc1", "Potency": "inactive"}
{"smiles": "CCc1ccc(NC(=O)c2ccc(F)c(S(=O)(=O)NCc3ccc(Cl)c(Cl)c3)c2)cc1", "Potency": "inconclusive [inhibitor, single point]"}
{"smiles": "Brc1ccccc1/C=N/Nc1ccc2ccccc2n1", "Potency": "inconclusive [inhibitor, single point]"}
{"smiles": "Cc1ccc(C2(c3ccc(C)cc3)CC2C(=O)Nc2ccc([N+](=O)[O-])cc2O)cc1", "note": "(stereo unspecified)", "Potency": "active: 3.98 µM"}
{"smiles": "CCOC(=O)[C@]12CCC=C1N(Cc1cccc3ccccc13)C(=O)[C@H](CC(=O)NCc1ccccc1)C2", "Potency": "inconclusive [inhibitor, single point]"}
{"smiles": "COc1ccc(Cc2c(C(C)(C)C)nc3cc(C)c(Br)c(C)n23)c(C)c1", "Potency": "inconclusive [inhibitor, single point]"}
{"smiles": "Nc1ncc(Br)cc1S(=O)(=O)NCCc1ccccc1", "Potency": "inconclusive [inhibitor, single point]"}
{"smiles": "Cc1[nH]c2ccccc2c1C(=O)CN1C(=O)C(=O)N(CCC2=CCCCC2)C1=O", "Potency": "inconclusive [inhibitor, partial curve, poor fit]"}
{"smiles": "O=C(C1CC1)N1CCc2cc(Br)cc(S(=O)(=O)N3CCN(c4ccccn4)CC3)c21", "Potency": "inactive"}
